Assay results reported in PubChem BioAssay AID1508623 (National Center for Advancing Translational Sciences (NCATS), 2021).
The whole screen tested about 48,000 compounds, of which about 450 (0.94%) were called active. Not shown: some 19% with an inconclusive outcome. Calls follow the shape of the dose curve; as a rule, active = well fitted inhibition curve with a large enough effect; inconclusive = small, poorly fitted or top-dose-only effect; inactive = no such curve, though single readings can be large or run the other way. Some of the results follow.

Assay: Primary qHTS for Identification of Small Molecule Inhibitors of Huntingtin Promoter Activity; also: nearly all actives have a fitted effect of over 50% in size
Settings: HEK293 HTT promoter firefly luciferase reporter (activity 0% = vehicle and -100% = no light), 24 h; series mostly up to 57.5 µM; activity change, negative = inhibition: at the top concentration
Method in brief: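 HEK293 cells carrying firefly luciferase reporters were seeded at 2,500 per well in Opti-MEM and cultured for 24 h. They were then treated with compounds at up to 57.5 uM final for 24 h at 37 degrees C before Dual-Glo luminescence readout.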

| SMILES | activity change, negative = inhibition |
| --- | --- |
| O=C(Cn1c(=O)n2nc(-c3cccc(F)c3)nc2c2ccccc21)N1CCN(c2ccc(F)cc2)CC1 | inactive: 11.9% |
| Cc1cccc(Cn2nnc3c(=O)[nH]c(C4CCCN(C(=O)c5ccccc5Cl)C4)nc32)c1 (stereo not drawn) | inactive: -19.7% |
| Cc1cccc(N2CCN(C(=O)c3noc4c3CCCCC4)CC2)c1C | inactive: -3.51% |
| CC(NC(=O)c1ccc(F)cc1)c1nc2ccccc2[nH]1 (stereo not drawn) | inactive: 17.6% |
| CCc1ccc(NC(=O)Cn2c(=O)n(-c3cc(OC)c(OC)c(OC)c3)c(=O)c3ccccc32)cc1 | inactive: -20.6% |
| Cc1cc(C(=O)C(=O)Nc2nncs2)c(C)n1-c1ccc(Cl)cc1 | inactive: -0.751% |
| COc1ccccc1NC(=O)c1cn(-c2ccccc2)nc1-c1ccccc1 | inactive: -26.9% |
| COc1ccc(N2CCN(C(=O)CNS(=O)(=O)c3ccc(Br)s3)CC2)cc1 | inactive: -30% |
| N#Cc1nc(/C=C/c2ccc(F)cc2)oc1NCc1ccc(F)cc1 | inactive: 4.5% |
| O=C(CNC(=O)c1ccc(F)cc1)OCc1cc(=O)n2nc(C3CCCCC3)sc2n1 | inactive: -3.57% |
| COc1ccc(OC)c(NC(=O)CN2CCCN(Cc3ccccc3Cl)S2(=O)=O)c1 | inactive: -29.6% |
| CCOc1cc(CNC(=O)c2ccc3c(c2)N(C)C(=O)C2CCCCN32)ccc1OC (stereo not drawn) | inactive: 9.64% |
| CCOc1ccccc1C(=O)NCc1nc2cccnc2n1Cc1ccc(C)cc1 | inactive: -13.5% |
| COc1ccc(CNC(=O)CCCn2nc(C)c3c(C)n(-c4ccc(C)cc4)nc3c2=O)cc1OC | inactive: -33.6% |
| CCN(c1ccccc1)c1nnc(NC(=O)Nc2ccc(Br)c(C)c2)s1 | inactive: 8.69% |
| O=C(c1ccc2c(Cl)c3c(nc2c1)CCCC3)N1CCN(c2cccc(C(F)(F)F)c2)CC1 | inactive: -9.73% |
| O=C(CN1C(=O)COc2ccc(S(=O)(=O)N3CCCCCC3)cc21)N1CCN(c2ccccc2F)CC1 | inactive: -16.4% |
| CCOc1ccc(CNC(=O)CCS(=O)(=O)c2cc3c4c(c2)CCN4C(=O)CC3)cc1OC | inactive: -17.3% |
| CCc1ccc(S(=O)(=O)c2cn(CC)c3cc(N4CCCCC4)c(F)cc3c2=O)cc1 | inactive: 6.78% |
| COc1ccc2nc(NC(=O)c3cc(=O)c4cc(C)cc(C)c4o3)sc2c1 | inactive: -8.94% |
| COc1cc(OC)c(NC(=O)C2CCN(S(=O)(=O)c3ccc4c(c3)oc(=O)n4C)CC2)cc1Cl | inactive: 6.43% |
| COc1ccc2c(CNCCc3cccs3)c(C(=O)O)n(Cc3cccc(F)c3)c2c1 | inactive: -22.6% |
| Cc1ccc(CNC(=O)CN2CCN(Cc3ccc(F)cc3Cl)C2=O)cc1 | inactive: -0.945% |
| Nc1c(C(=O)NCc2ccc(Cl)cc2)sc2nc(-c3ccc(F)cc3)ccc12 | inactive: -10.8% |

| SMILES | activity change, negative = inhibition |
| --- | --- |
| CCc1ccc(Nc2sc(C(=O)c3ccc(F)cc3)c(N)c2S(=O)(=O)c2ccccc2)cc1 | inactive: -20.3% |
| COc1ccc(C(=O)N2CCN(CC(=O)N3CCOCC3)CC2)cc1 | inactive: -2.18% |
| COc1ccc(OC)c(NC(=O)CCNS(=O)(=O)c2ccc3c(c2)oc(=O)n3C)c1 | inactive: -5.65% |
| COc1cccc(CNC(=O)C2CCN(c3nc4ccc(Cl)cc4[nH]3)CC2)c1 | inactive: -10% |
| CCCCc1cc(=O)oc2cc(C)c3c(C)coc3c12 | inactive: -8.15% |
| Cc1ccc(C2c3c(-c4ccccc4O)n[nH]c3C(=O)N2CCCO)cc1 (stereo not drawn) | inactive: -29.7% |
| CCOC(=O)c1cccc(NC(=O)c2ccc3c(c2)nnn3C2CCCC2)c1 | inactive: -1.4% |
| Cn1cnc(S(=O)(=O)N2CCCC(C(=O)Nc3ccc(F)cc3Cl)C2)c1 (stereo not drawn) | inactive: -28.4% |
| Cc1ccc(Cn2c(C(=O)Nc3cccc(Cl)c3)cc3sccc32)cc1 | inactive: -12.6% |
| COc1cc(C(=O)NC2CCCNC2)cc(OC)c1OC (stereo not drawn) | inactive: 10.7% |
| Cn1nnnc1SCCNCc1ccccc1OCc1ccccc1F | inactive: -28.5% |
| COc1cccc(C(=O)Nc2ccc(Cl)c(-c3nc4ccccc4[nH]3)c2)c1 | inactive: -20.8% |
| CCc1ccc(OCCCSc2nc(-c3ccc(C(C)(C)C)cc3)nc3cc(=O)[nH]n23)cc1 | inactive: -5.61% |
| Cc1ccc(S(=O)(=O)c2cn(C)c3cc(N4CCCCCC4)c(F)cc3c2=O)cc1 | inactive: -10% |
| CC(=O)c1ccc(NS(=O)(=O)c2cc(-c3cnc(C4CC4)o3)ccc2C)cc1 | inactive: -27.1% |
| Cc1ccccc1NC(=O)c1ccc2nc(Cc3ccccc3)oc2c1 | inactive: -29.9% |
| CCOc1ccc(NC(=O)c2cc3c(-c4ccccc4F)nn(C)c3s2)cc1 | inactive: -15.5% |
| Cc1ccc(Cn2c(=O)n(-c3ccccc3)c(=O)c3ccc(C(=O)NCc4ccco4)cc32)cc1 | inactive: -26.3% |
| Cn1c(SCc2ccc(F)cc2)nc2c([nH]c3ccccc32)c1=O | inactive: -0.462% |
| CCOC(=O)c1c(C)oc2nc(C)nc(N3CCN(c4ccc(C(C)=O)cc4)CC3)c12 | inactive: 1.42% |
| CC(C)(C)OC(=O)N1CCC(c2c(C(=O)NCc3ccc(F)cc3)cnn2-c2ccc(F)cc2)CC1 | inactive: -25.7% |
| COc1cccc(C(=O)N(Cc2sccc2C)C2CCS(=O)(=O)C2)c1 (stereo not drawn) | inactive: -9.74% |
| COc1ccc(C(=O)Nc2cc(-c3cccc(C)c3)nn2-c2ccccc2)cc1 | inactive: -29.4% |
| CCN(CC)CCNC(=O)c1sc2nc3n(c(=O)c2c1C)CCCCC3 | inactive: 1.32% |
